From PubChem BioAssay AID493208 (National Center for Advancing Translational Sciences (NCATS), 2011)
The campaign covered roughly 44,000 compounds. About 340 (0.77%) were called active. Inconclusive results (about 5%) are left out. Calls come from the whole dose curve; as a rule, active = well fitted inhibition curve with a large enough effect; inconclusive = small, poorly fitted or top-dose-only effect; inactive = flat fitted curve, though single readings scatter. This is one part of the list.

Assay: Acumen qHTS Assay for Inhibitors of the mTORC1 Signaling Pathway in MEF (Tsc2-/-, p53-/-) Cells: Sytravon;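 note: plate controls were DMSO for no effect and rapamycin for full effect; nearly all actives have a fitted effect of over 50% in size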
Conditions: phospho-rpS6 immunofluorescence/PI, 24 h; series mostly up to 38.3 µM; activity change, negative = inhibition: at the top concentration
Method in brief: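 Tsc2-/-, p53-/- MEFs (empty-vector stable line) in DMEM + 10% FBS were treated with compounds 24 h at 37 degree Celsius, fixed, and immunostained for phospho-rpS6 (Alexa-488) with propidium iodide counterstain. Laser-scanning cytometry gave % positive cells, normalized against 7.5 nM rapamycin and DMSO.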

Activity change, negative = inhibition, inactive:
Cc1cccc(NC(=O)Cn2cc(C(=O)C3CCCCC3)c3ccccc32)c1C -12.4%
COc1ccccc1C(=O)N1CCCCC1CCN1CCOCC1 (stereo unspecified) -3.95%
O=C(Nc1ccc(-c2nc3cc(NC(=O)c4ccccc4F)ccc3o2)cc1)c1ccccc1F -3.51%
N#Cc1ccccc1NC(=O)CSc1ncn[nH]1 6.69%
Cc1ccc(CNC(=O)C(=O)NCC(c2cccnc2)N2CCN(c3ccc(F)cc3)CC2)cc1 (stereo unspecified) 8.39%
O=C(NCc1ccccc1)c1cc2sccc2n1Cc1ccc(F)cc1 -1.18%
CCCc1nn2c(=O)cc(COC(=O)c3cccs3)nc2s1 -5.19%
CCOc1ccc(C(=O)c2cn(CC(=O)Nc3ccc4c(c3)OCCO4)c3ccc(OC)cc3c2=O)cc1 -14.8%
COc1ccccc1NC(=O)c1sc2nc(C)c(C(=O)Nc3ccc(C)cc3C)c(-c3ccc(Br)cc3)c2c1N -5.96%
Cc1ccccc1CNC(=O)Cn1ccc2cc(S(=O)(=O)N3CCCCC3)ccc21 -5.52%
Cn1c(=O)c2c(nc(Oc3ccc(F)cc3)n2Cc2ccc(F)cc2)n(C)c1=O -1.68%
Cc1ccc(C)c(NC(=O)c2nc(S(C)(=O)=O)ncc2N(Cc2ccc(C(C)(C)C)cc2)Cc2ccco2)c1 -0.0619%
CN1C(=O)Cc2cc(S(=O)(=O)N3CCN(c4cccc(C(F)(F)F)c4)CC3)ccc21 -0.996%
Cc1cccc(C(=O)Nc2ccc(C(=O)OCc3cc(=O)n4c5c(sc4n3)CCCC5)cc2)c1 0%
CCOc1ccc(C(=O)CSc2nc3cc(C(=O)NC4CCCC4)ccc3c(=O)n2CC2CCCO2)cc1 (stereo unspecified) 1.19%
CC(=O)c1ccc(NC(=O)c2ccc3c(c2)nnn3C2CCCC2)cc1 7.93%
CCOc1ccc(CCn2c3c(c(=O)[nH]c2=O)C(NC(=O)c2ccccc2)(C(F)(F)F)C(=O)N3)cc1OCC (stereo unspecified) 3.05%
CCCCCn1c(=O)[nH]c2cc(C(=O)N3CCN(c4cc(Cl)ccc4C)CC3)ccc2c1=O 5.63%
CCOC(=O)N1CCC(NC(=O)c2ccc3c(c2)N(Cc2cc(C)ccc2C)C(=O)c2ccccc2S3(=O)=O)CC1 0.0607%
Cc1ccc(C(=O)OCc2cc(=O)n3nc(-c4cccs4)sc3n2)cc1 -3.88%
Cc1ccccc1C(=O)OCc1cc(=O)n2nc(C3CC3)sc2n1 -9.99%
CCOC(=O)c1c(S(=O)(=O)NCC(=O)Nc2cc(C)ccc2OC)c(C)n(C)c1C -0.278%
COc1ccc(NC(=O)CSc2nc3ccccc3nc2Cc2ccc(C)cc2)cc1Cl -16.5%
O=C(Cn1cc(SCc2ccccc2F)c2ccccc21)N1CCCCCC1 -12.1%
COc1ccccc1NC(=O)Cn1c(=O)n(Cc2cccs2)c(=O)c2cccnc21 -6.1%
CCN(CC)c1ccc2cc(-c3nc(-c4ccc(Cl)cc4Cl)cs3)c(=O)oc2c1 0.25%
